Measurements as given in the supplement of paper PMC10928670.
MIC of N. gonorrhoeae strains collected 1971-2005, agar dilution (CLSI M07); ranges 0.03-64 mg/L (penicillin, azithromycin), 0.015-1 (cefixime, ceftriaxone), 0.5-256 (spectinomycin); higher = less susceptible. No active / inactive call per row; the paper counts cefixime and ceftriaxone above 0.25 and azithromycin above 1 mg/L as non-susceptible. The source says 'penicillin'; penicillin G is assumed. Isolates are numbered anew.

How the values were obtained:
Assay in all cases: Agar dilution by CLSI M07.
azithromycin = compound: CC[C@H]1OC(=O)[C@H](C)[C@@H](O[C@H]2C[C@@](C)(OC)[C@@H](O)[C@H](C)O2)[C@H](C)[C@@H](O[C@@H]2O[C@H](C)C[C@H](N(C)C)[C@H]2O)[C@](C)(O)C[C@@H](C)CN(C)[C@H](C)[C@@H](O)[C@]1(C)O [azithromycin]
cefixime = compound: C=CC1=C(C(=O)O)N2C(=O)[C@@H](NC(=O)/C(=N\OCC(=O)O)c3csc(N)n3)[C@H]2SC1 [cefixime]
ceftriaxone = compound: CO/N=C(\C(=O)N[C@@H]1C(=O)N2C(C(=O)O)=C(CSc3nc(=O)c(O)nn3C)CS[C@H]12)c1csc(N)n1 [ceftriaxone]
spectinomycin = compound: CN[C@@H]1[C@H](O)[C@H](NC)[C@H]2O[C@@]3(O)C(=O)C[C@@H](C)O[C@H]3O[C@@H]2[C@H]1O [spectinomycin]
penicillin G = compound: CC1(C)S[C@@H]2[C@H](NC(=O)Cc3ccccc3)C(=O)N2[C@H]1C(=O)O [penicillin G]

Row | Test System | MIC (azithromycin) [µg/mL] | MIC (cefixime) [µg/mL] | MIC (ceftriaxone) [µg/mL] | MIC (spectinomycin) [µg/mL] | MIC (penicillin G) [µg/mL]
1 | Neisseria gonorrhoeae isolate 193 (GyrA: Wild type, ParC: Wild type, mtrR: -35A Del, penA: Type IV NonMosaic, A517G, G543S, ponA: L421P, porB: G120K, A121D) | 0.25 | 0.03 | 0.06 | 8 | 4
2 | Neisseria gonorrhoeae isolate 194 (GyrA: Wild type, ParC: Wild type, mtrR: -35A Del, G45D, penA: Type XXII NonMosaic, A517G, ponA: L421P, porB: G120D) | 0.06 | ≤ 0.015 | ≤ 0.015 | 16 | 0.25
3 | Neisseria gonorrhoeae isolate 195 (GyrA: Wild type, ParC: Wild type, mtrR: G45D, penA: Type XXII NonMosaic, A517G, ponA: Wild type, porB: Wild type) | 0.06 | 0.03 | ≤ 0.015 | 16 | 0.25
4 | Neisseria gonorrhoeae isolate 196 (GyrA: Wild type, ParC: Wild type, mtrR: -35A Del, G45D, penA: Type II NonMosaic, A517G, ponA: Wild type, porB: G120K, A121D) | 0.125 | ≤ 0.015 | ≤ 0.015 | 16 | 1
5 | Neisseria gonorrhoeae isolate 197 (GyrA: Wild type, ParC: Wild type, mtrR: Wild type, penA: Type I NonMosaic, ponA: Wild type, porB: Wild type) | 0.125 | ≤ 0.015 | ≤ 0.015 | 16 | 0.125
6 | Neisseria gonorrhoeae isolate 198 (GyrA: Wild type, ParC: Wild type, mtrR: -35A Del, A39T, penA: Type IV NonMosaic, A517G, G543S, ponA: Wild type, porB: A121D) | ≤ 0.03 | ≤ 0.015 | ≤ 0.015 | 16 | 0.125
7 | Neisseria gonorrhoeae isolate 199 (GyrA: Wild type, ParC: Wild type, mtrR: G45D, penA: Type XXII NonMosaic, A517G, ponA: Wild type, porB: G120D, A121D) | 0.25 | ≤ 0.015 | ≤ 0.015 | 16 | 0.5
8 | Neisseria gonorrhoeae isolate 200 (GyrA: Wild type, ParC: Wild type, mtrR: G45D, penA: Type XXII NonMosaic, A517G, ponA: Wild type, porB: Wild type) | ≤ 0.03 | ≤ 0.015 | ≤ 0.015 | 8 | 0.25
9 | Neisseria gonorrhoeae isolate 201 (GyrA: Wild type, ParC: Wild type, mtrR: -35A Del, penA: Type IV NonMosaic, A517G, G543S, ponA: L421P, porB: G120D) | 0.25 | 0.03 | 0.03 | 16 | 2
10 | Neisseria gonorrhoeae isolate 202 (GyrA: Wild type, ParC: Wild type, mtrR: Wild type, penA: WT NonMosaic, ponA: Wild type, porB: Wild type) | 0.125 | ≤ 0.015 | ≤ 0.015 | 16 | ≤ 0.03
11 | Neisseria gonorrhoeae isolate 203 (GyrA: Wild type, ParC: Wild type, mtrR: -35A Del, A39T, penA: Type IV NonMosaic, A517G, G543S, ponA: Wild type, porB: G120K, A121D) | 0.5 | 0.03 | 0.03 | 16 | 2
12 | Neisseria gonorrhoeae isolate 204 (GyrA: S91F, D95G, ParC: Wild type, mtrR: -35A Del, penA: Type V Nonmosaic, A517G, G543S, ponA: L421P, porB: Wild type) | 0.25 | ≤ 0.015 | ≤ 0.015 | 16 | 1
13 | Neisseria gonorrhoeae isolate 205 (GyrA: D95G, ParC: Wild type, mtrR: -35A Del, A39T, penA: Type V Nonmosaic, A517G, G543S, ponA: L421P, porB: G120K, A121D) | 0.25 | 0.03 | 0.06 | 32 | 4
14 | Neisseria gonorrhoeae isolate 206 (GyrA: Wild type, ParC: Wild type, mtrR: Wild type, penA: Type II NonMosaic, A517G, ponA: L421P, porB: porB1a) | 0.125 | ≤ 0.015 | ≤ 0.015 | 16 | 0.25
15 | Neisseria gonorrhoeae isolate 207 (GyrA: Wild type, ParC: Wild type, mtrR: -35A Del, G45D, penA: Type XIX NonMosaic, A517G, ponA: L421P, porB: G120D, A121N) | ≤ 0.03 | ≤ 0.015 | ≤ 0.015 | 32 | 0.125
16 | Neisseria gonorrhoeae isolate 208 (GyrA: Wild type, ParC: Wild type, mtrR: Wild type, penA: WT NonMosaic, ponA: Wild type, porB: Wild type) | 0.06 | ≤ 0.015 | ≤ 0.015 | 32 | ≤ 0.03
17 | Neisseria gonorrhoeae isolate 209 (GyrA: S91F, D95G, ParC: Wild type, mtrR: -35A Del, penA: Type V Nonmosaic, A517G, G543S, ponA: L421P, porB: G120K, A121D) | 0.25 | 0.06 | 0.06 | 16 | 4
18 | Neisseria gonorrhoeae isolate 210 (GyrA: Wild type, ParC: Wild type, mtrR: -35A Del, G45D, penA: Type II NonMosaic, A517G, ponA: Wild type, porB: G120D) | 0.5 | 0.06 | 0.06 | 32 | 4
19 | Neisseria gonorrhoeae isolate 211 (GyrA: Wild type, ParC: Wild type, mtrR: -35A Del, A39T, penA: Type V Nonmosaic, A517G, G543S, ponA: L421P, porB: G120K, A121D) | 0.5 | 0.06 | 0.06 | 32 | 16
20 | Neisseria gonorrhoeae isolate 212 (GyrA: Wild type, ParC: Wild type, mtrR: -35A Del, penA: Type IV NonMosaic, A517G, G543S, ponA: L421P, porB: G120K, A121D) | 0.5 | 0.03 | 0.06 | 16 | > 64
21 | Neisseria gonorrhoeae isolate 213 (GyrA: Wild type, ParC: Wild type, mtrR: A39T, penA: WT NonMosaic, ponA: Wild type, porB: porB1a) | 0.25 | ≤ 0.015 | ≤ 0.015 | 128 | 0.06
22 | Neisseria gonorrhoeae isolate 214 (GyrA: Wild type, ParC: Wild type, mtrR: -35A Del, A39T, penA: Type V Nonmosaic, A517G, G543S, ponA: L421P, porB: A121D) | 0.25 | 0.03 | 0.03 | 16 | 2
23 | Neisseria gonorrhoeae isolate 215 (GyrA: Wild type, ParC: Wild type, mtrR: -35A Del, G45D, penA: Type II NonMosaic, A517G, ponA: L421P, porB: G120K, A121D) | 0.25 | ≤ 0.015 | 0.03 | 16 | 2
24 | Neisseria gonorrhoeae isolate 216 (GyrA: Wild type, ParC: Wild type, mtrR: -35A Del, penA: Type XXII NonMosaic, A517G, ponA: L421P, porB: G120K, A121D) | 1 | 0.03 | 0.03 | 16 | 2
25 | Neisseria gonorrhoeae isolate 217 (GyrA: S91F, ParC: Wild type, mtrR: -35A Del, A39T, penA: Type V NonMosaic, A517G, G543S, ponA: L421P, porB: G120K, A121D) | 0.5 | 0.03 | 0.06 | 32 | 4
